Measured values published in the supplement of paper PMC12217912.
The other results are listed elsewhere or left out. The full chains were built here from the parent and the listed change. Values near 0.05 are background.

B1: TEV protease; numbered along this chain (parent)
chain: MGESLFKGPRDYNPISSSICHLTNESDGHTTSLYGIGFGPFIITNKHLFRRNNGTLVVQSLHGVFKVKDTTTLQQHLVDGRDMIIIRMPKDFPPFPQKLKFREPQREERICLVTTNFQTKSMSSMVSDTSCTFPSGDGIFWKHWIQTKDGQCGSPLVSTRDGFIVGIHSASNFTNTNNYFTSVPKNFMELLTNQEAQQWVSGWRLNADSVLWGGHKVFMVKPEEPFQPVKEATQL

Variants of: B1
Assay: raw area under fraction-flipped curve 0-4 h after induction (AUC4h, not background-subtracted), DNA-recorder readout of cleavage of the substrate (dimensionless); higher = more cleavage of the substrate by the protease variant
Settings: temperature: 34 °C; time window: 0-4 h after rhamnose induction
Method: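 In vivo DNA recorder in E. coli TOP10(DE3) ΔrhaA at 34 °C. Each TEVp single-site mutant (parent TEVp 0) is paired with a single-site variant of the 7-mer TEVs (canonical ENLYFQ|S). The substrate sits between flexible linkers in a Bxb1-sfGFP-TEVs-SsrA fusion, so cleavage stabilises Bxb1 and speeds flipping of a recombination array, read by NGS. The value is the raw area under the fraction-flipped curve over 0-4 h after rhamnose induction (AUC4h), with ≥20 reads per time point. It is not background-subtracted; inactive controls average about 0.047.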
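Further: Bxb1 expression induced with 0.2% (w/v) L-rhamnose at OD600 near 0.5, cultures sampled hourly, flipped fraction per protease–substrate barcode pair counted by paired-end Illumina sequencing.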

| Variant | area with substrate ENLYFQA | area with substrate ENLYFQC | area with substrate ENLYFQD | area with substrate ENLYFQG | area with substrate ENLYFQH | area with substrate ENLYFQL | area with substrate ENLYFQM | area with substrate ENLYFQN | area with substrate ENLYFQR | area with substrate ENLYFQS | area with substrate ENLYFQT | area with substrate ENLYFQV | area with substrate ENLYFQW | area with substrate ENLYFQF | area with substrate ENLYFQI | area with substrate ENLYFQP | area with substrate ENLYFQQ | area with substrate ENLYFQY | area with substrate ENLYFQE | area with substrate ENLYFQK |
| --- | --- | --- | --- | --- | --- | --- | --- | --- | --- | --- | --- | --- | --- | --- | --- | --- | --- | --- | --- | --- |
| Q198T | 0.0939 | 0.129 | 0.0619 | 0.0958 | 0.0809 | 0.0665 | 0.101 | 0.0779 | 0.0566 | 0.106 | 0.0854 | 0.0509 | 0.0613 |  |  |  |  |  |  |  |
| L211M | 0.115 |  | 0.0837 |  | 0.118 | 0.0643 | 0.0727 | 0.0594 | 0.0649 | 0.106 | 0.0691 | 0.0711 | 0.0675 | 0.102 | 0.0487 | 0.0544 | 0.0986 | 0.0721 |  |  |
| G213R | 0.0597 | 0.0557 | 0.0466 | 0.0725 | 0.0566 | 0.0592 | 0.0626 | 0.0645 | 0.0523 | 0.0611 | 0.0629 | 0.0594 | 0.0543 |  |  | 0.0764 | 0.0616 | 0.0545 | 0.0819 | 0.0604 |
| A196W | 0.0988 |  | 0.0573 |  |  |  |  | 0.084 | 0.0656 | 0.0985 |  |  | 0.062 |  | 0.0614 | 0.0552 |  | 0.0937 | 0.0584 |  |
| A196D | 0.1 |  |  | 0.0975 | 0.107 | 0.069 | 0.0848 | 0.073 |  | 0.0981 |  |  | 0.0518 | 0.0633 | 0.0701 | 0.0556 | 0.0708 | 0.0666 |  | 0.0632 |
| A196F | 0.121 | 0.11 |  | 0.0824 | 0.0669 | 0.0646 | 0.0762 | 0.083 | 0.0468 | 0.108 | 0.0699 |  |  |  | 0.0612 | 0.0561 | 0.0853 | 0.0934 | 0.0724 | 0.0682 |
| Q197V | 0.0922 | 0.0925 | 0.0621 | 0.165 |  | 0.0497 | 0.0677 | 0.077 |  | 0.108 | 0.0654 | 0.0607 | 0.06 |  | 0.0602 | 0.051 | 0.0581 | 0.0766 | 0.0471 | 0.0595 |
| A207K | 0.0399 | 0.089 |  | 0.0804 | 0.0469 | 0.0539 | 0.0752 | 0.0699 | 0.0682 | 0.0922 |  |  | 0.0596 |  | 0.0657 |  |  | 0.0937 |  |  |
| F218N | 0.0625 | 0.0879 |  | 0.0747 | 0.0726 |  | 0.0654 | 0.0527 |  | 0.0912 |  | 0.0547 | 0.0617 | 0.0559 |  |  |  |  | 0.0736 |  |
| S201G | 0.068 | 0.0627 |  | 0.0827 |  | 0.0613 | 0.0575 | 0.0592 | 0.0503 | 0.0679 | 0.0612 |  | 0.0459 |  | 0.0668 |  |  | 0.0607 |  |  |
| S209D | 0.105 | 0.115 |  |  | 0.0819 | 0.041 | 0.0844 | 0.0717 |  | 0.118 |  | 0.0539 | 0.0608 |  |  | 0.0607 |  |  |  | 0.0549 |
| W212G | 0.0666 |  | 0.0658 | 0.157 | 0.0571 |  |  |  |  | 0.0714 | 0.0762 | 0.0597 | 0.0607 |  | 0.0582 | 0.0811 | 0.0605 | 0.0596 |  | 0.0546 |
| V210N | 0.0709 | 0.0819 | 0.0714 | 0.0999 |  | 0.0592 | 0.083 | 0.0612 | 0.0697 | 0.075 | 0.0627 | 0.0626 | 0.0554 | 0.0457 | 0.0472 |  | 0.0698 |  |  | 0.0621 |
| G214D | 0.0919 | 0.092 |  |  |  |  |  | 0.0583 | 0.0522 | 0.0856 | 0.0515 |  | 0.0674 | 0.0594 | 0.0644 | 0.0494 |  |  |  |  |
| K221L | 0.0834 | 0.114 |  | 0.0588 | 0.079 | 0.0547 | 0.0804 | 0.0724 | 0.0531 | 0.0967 | 0.0538 |  | 0.059 |  | 0.0547 |  |  |  |  | 0.0543 |
| K221S | 0.105 | 0.112 | 0.0725 | 0.132 | 0.0715 | 0.0532 | 0.0849 | 0.082 | 0.0618 | 0.0984 | 0.059 | 0.0594 | 0.0672 |  | 0.0352 |  |  | 0.0673 | 0.0647 |  |
| P222A | 0.103 | 0.133 | 0.0775 | 0.0846 |  |  |  |  |  | 0.0954 | 0.0602 | 0.0622 | 0.0651 | 0.0742 | 0.0491 | 0.0589 |  | 0.0779 | 0.0723 | 0.056 |
| M219T | 0.122 | 0.105 |  |  | 0.0918 | 0.0682 | 0.0714 | 0.0836 | 0.0558 | 0.104 | 0.0606 |  |  |  |  | 0.0538 |  | 0.0855 |  |  |
| G202R | 0.0809 |  | 0.0585 | 0.0733 | 0.0792 |  | 0.0615 | 0.065 | 0.0666 | 0.0683 | 0.0573 |  |  |  | 0.0463 | 0.0795 |  | 0.0658 |  | 0.0565 |
| R204V | 0.104 | 0.141 |  | 0.108 | 0.0878 | 0.0652 | 0.0728 | 0.0834 | 0.0628 | 0.121 | 0.063 | 0.0652 | 0.0692 |  | 0.0658 | 0.0583 |  | 0.0952 | 0.064 | 0.0663 |
| R204G | 0.066 | 0.0875 | 0.0665 | 0.0942 |  | 0.0635 | 0.0534 | 0.0741 | 0.0436 | 0.0889 | 0.0653 | 0.058 | 0.0458 | 0.0751 | 0.059 |  |  |  | 0.0642 | 0.0625 |
| R204M | 0.1 | 0.12 | 0.0797 | 0.117 |  | 0.0632 | 0.0983 | 0.0811 | 0.0595 | 0.111 | 0.0706 | 0.108 | 0.0619 | 0.0798 | 0.0584 | 0.062 |  | 0.0816 | 0.0695 | 0.0704 |
| W203V | 0.074 | 0.0736 | 0.061 | 0.0789 |  | 0.0501 |  | 0.0568 | 0.0577 | 0.0745 | 0.0632 | 0.0617 |  | 0.043 | 0.0552 | 0.0773 | 0.0621 |  |  |  |
| V220G | 0.135 | 0.112 | 0.0729 | 0.108 | 0.0989 | 0.0653 |  | 0.0955 | 0.067 | 0.118 | 0.0558 |  | 0.0637 | 0.0911 | 0.0739 | 0.0502 | 0.082 | 0.075 |  | 0.0611 |
| V220E | 0.146 | 0.108 |  | 0.109 | 0.0858 | 0.0604 | 0.0773 | 0.0639 | 0.0647 | 0.11 |  | 0.0565 | 0.0552 | 0.0475 |  | 0.0557 |  | 0.0508 |  | 0.0607 |
